Measurements reported in paper PMC4811778 (eLife, 2016).

Assays:
Assay in all cases: cross-linking; purified native E. coli 70S ribosome (30 µg) treated with Leiker (bAL2) at 8:1, 4:1 or 2:1 protein-to-cross-linker mass ratios; trypsin digest, streptavidin enrichment, LC-MS/MS, pLink; the partners are subunits of the co-purified complex
Conditions in all cases: both partners purified
ribosomal protein S13 = ribosomal protein S13 (E. coli, UniProt P0A7S9)
ribosomal protein L33 = ribosomal protein L33 (E. coli, UniProt P0A7N9)
ribosomal protein L9 = ribosomal protein L9 (E. coli, UniProt P0A7R1)
ribosomal protein S1 = ribosomal protein S1 (E. coli, UniProt P0AG67)
ribosomal protein S2 = ribosomal protein S2 (E. coli, UniProt P0A7V0)
ribosomal protein L5 = ribosomal protein L5 (E. coli, UniProt P62399)

Measured: binding result

B1: ribosomal protein L1 (natural protein)
chain: not shown
notes: 50S ribosomal protein L1, E. coli; subunit of the native 70S ribosome; source: endogenous, in 70S ribosomes purified from E. coli DH5α (sucrose cushion, 10-50% sucrose gradient)
binds: ribosomal protein S13 | ribosomal protein L33 | ribosomal protein L9 | ribosomal protein S1 | ribosomal protein S2 | ribosomal protein L5
